From the RNAGym collection of RNA variant scans (doi:10.7554/elife.90254)
The source gives no read counts; variants with many changes may rest on few reads.

B1: OR4K15 (parent)
chain: GUUAACGGUCAUAGGCCAUGGAAACUAGGAGCACCAUUUCGCUGCCAGUGAAGAAAUGAACAAAGAAAAUCUGGGCCAGGCAGGCAUCAAAAGAAAUAGUCUUGCGCUCAACCAGAAAGUCUGUAAUCAUUUUAAGGGUA

Variants of: B1
Test: self-cleavage, relative activity (ratio to wild type); higher = more cleavage; in vitro, sequencing; the parent is a self-cleaving ribozyme
U39C U43C A62G showed a self-cleavage of 1.76. Work on U39C A66C U108C yielded a self-cleavage of 0.02. Work on U38G A98G U139C yielded a self-cleavage of 1.15. For U38C U87C A90G U124C, the self-cleavage was 0.18. With U39C A117G A129U A134G the self-cleavage was 0.94. U38C A89G U108C gave a self-cleavage of 0. Work on U38C U72A U120C yielded a self-cleavage of 0.16. Variant U39C A94G U131C has a self-cleavage of 0.67. With U39C A52G A55G U103A U108C U132C the self-cleavage was 0.01. With U39A A51U A111G the self-cleavage was 0.03. U39C A69G U87C U127C A129G showed a self-cleavage of 0.54. With U38C A62G U70C U72C the self-cleavage was 0.32. U39A U43C A78U gave a self-cleavage of 0.36. In the case of U38C A55C A96G, the self-cleavage is reported as 1.17. U39C A56G A60G showed a self-cleavage of 0.95. Work on U38G A51G A66G A95G U100C G115U yielded a self-cleavage of 0.46. U37C U108C A134U gave a self-cleavage of 0.02. U38A C76U A114U gave a self-cleavage of 0.07. Work on U38C A82G A94G yielded a self-cleavage of 0.24. Work on U38G U103C A111G yielded a self-cleavage of 0.02. In the case of U38C A116G A134G, the self-cleavage is reported as 0.64. Variant U38C A69G U72C has a self-cleavage of 0.21. U38C A96U G136U showed a self-cleavage of 0.93. In the case of U38C A60G A118G U132A, the self-cleavage is reported as 0.48. U39C A56G A64G U120C showed a self-cleavage of 1.8. U39C A56G U70C A89G A114G U131C A135G showed a self-cleavage of 0.04. For U38C A56G U130C, the self-cleavage was 1.85. Variant U39C U43C A47G A96G U132A has a self-cleavage of 1.75. Work on U38C U43A A55G A62U A94G yielded a self-cleavage of 1.2. U38C C46U U108C A110G showed a self-cleavage of 0.01. With U38C A47U U127C the self-cleavage was 0.48. With U38C A68G A78U A82U U127C the self-cleavage was 0.07. Variant U39C A47G A63G U97C G137A has a self-cleavage of 0.08. U38C A78G U108C A116U gave a self-cleavage of 0. With U37C U72C U87C the self-cleavage was 0.27. U38A G44A U49A showed a self-cleavage of 1.97. In the case of U38C A68U U72A, the self-cleavage is reported as 0.39. Variant U38C A59G A118G has a self-cleavage of 0.37. For U38C A51G A52G, the self-cleavage was 0.94. For U38A A91G U122A, the self-cleavage was 0.95. Variant U39C A91G A110G has a self-cleavage of 0.11. In the case of U39C A91G A110U, the self-cleavage is reported as 1.41. Work on U37C U100G A135G yielded a self-cleavage of 2.56. In the case of U38C U57C A63U, the self-cleavage is reported as 1.22. In the case of U37G U87C A94G A117G U122C, the self-cleavage is reported as 0.43. With U38C A90U A135G the self-cleavage was 1.7. U39A A52G A62C gave a self-cleavage of 0.59. U39A A96U G123A showed a self-cleavage of 1.74. U38C A110U C128U gave a self-cleavage of 0.53. U39C A47U U120C G123A gave a self-cleavage of 0.27. Variant U39C A60G A62G has a self-cleavage of 0.19. In the case of U38C U39C A135G, the self-cleavage is reported as 1.43. U38C G41A C42U U130C gave a self-cleavage of 1.23. With U39C U43A G48A A52U A63G A66G the self-cleavage was 1.56. With U38C A63G A110G U122C the self-cleavage was 0.2. With U38C U43C A52G the self-cleavage was 1.06. U38A U39C C85U gave a self-cleavage of 0.84. With U39C A64G A69G A110G the self-cleavage was 0.2. Work on U39C A47G A78G U100C A114G yielded a self-cleavage of 0.09. Work on U38C A59G A66G U132C yielded a self-cleavage of 1.52. Variant U39C A86G U87C A96G C113U has a self-cleavage of 0.1. U39C A67U A111G gave a self-cleavage of 0.01. In the case of U38C G48C U49C A55G U87C, the self-cleavage is reported as 0.78. U39C A68G U103A gave a self-cleavage of 0.71. With U38C U49C A66G U131C the self-cleavage was 0.97. In the case of U38G A55U A82G, the self-cleavage is reported as 0.66. In the case of U38C U108C A129G, the self-cleavage is reported as 0. U39C A78C A96U showed a self-cleavage of 0.45. Variant U39C A92G A96G U131G has a self-cleavage of 1.53. U39C A60G A92U A117G A118G showed a self-cleavage of 0.36. Work on U38C A67G A95G U120C yielded a self-cleavage of 1.6. With U39C A59G A68G G80A A94G the self-cleavage was 0.25. For U38C A60G G93A, the self-cleavage was 1.07. U39A A82G A135G gave a self-cleavage of 0.76. U38C G41A C45U A60G U100C showed a self-cleavage of 2.74. In the case of U37C U57C G65A U108C, the self-cleavage is reported as 0.01. U39C A82U U87C showed a self-cleavage of 0.14. U38C A60G U100C showed a self-cleavage of 2.3. U39A C71U U72C U108A U124A U131C showed a self-cleavage of 0. For U37C U122C U133C, the self-cleavage was 1.62. With U37G A59G A129G the self-cleavage was 1.32. Work on U38C A47C A54U yielded a self-cleavage of 1.64. For U37C U87A U120C U130A, the self-cleavage was 0.47. For U39C A47U A125G, the self-cleavage was 0.32.
